Source: PubChem BioAssay AID1645887 (National Center for Advancing Translational Sciences (NCATS), 2021)
Several values for one entry are separate records, joined by “and”; a condition that tells them apart may be missing. Equal entries are not always repeated. Screen size: about 16,000 compounds; about 40 (0.2%) were called active. Another 1% or so got no clear call; they are omitted. Calls come from the whole dose curve; as a rule, active = well fitted activation curve with a large enough effect; inconclusive = small, poorly fitted or top-dose-only effect, or another doubt; inactive = no such curve, though single readings can be large or run the other way. Some of the results follow.

Molecular target: Rap guanine nucleotide exchange factor 4 (Homo sapiens) (UniProt Q8WZA2)
Experiment: Validation qHTS for agonist of cAMP-regulated guanine nucleotide exchange factor 4 (EPAC2);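 note: exchange makes BODIPY-GDP fluorescence drop when released from Rap1B; series mostly up to about 150 µM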
Settings: EPAC2 Rap1B BODIPY-GDP exchange, fluorescence; activation: hits give high values
Excerpt: Principle Investigator: Xiaodong Cheng Ph.D.
The University of Texas Medical Branch, […], TX
In multi-cellular eukaryotic organisms, the effects of cAMP are transduced by two ubiquitously-expressed intracellular cAMP receptors, the classic protein kinase A/cAMP-dependent protein kinase (PKA/cAPK) and the more recently discovered exchange protein directly activated by cAMP/cAMP-regulated guanine nucleotide exchange factor (EPAC/cAMP-GEF). Both PKA and EPAC are ubiquitously expressed in all tissues, and an increase in intracellular cAMP levels will lead to the activation of both PKA and EPAC. Therefore, careful dissections of the individual role and relative contribution of EPAC and PKA within the overall cAMP signaling in various model systems are critical for further elucidating the mechanism of cAMP signaling. To date no EPAC-specific antagonists and agonist, as well as isoform-specific agonists have been reported, and developing EPAC-specific pharmacological probes to determine the physiological functions that EPAC play in the overall cAMP-mediated signaling remains a major challenge within the research field. Furthermore, identified regulators of EPAC may lead to new mechanism-based therapeutic strategies specifically targeting the EPAC / cAMP-signaling components as EPAC has been implicated to play important roles in major human pathological conditions such as diabetes, heart disease, and cancer.
This qHTS will be used to screen the Molecular Libraries Small Molecule Repository (MLSMR) as a concentration-titration series using the NCGC unique quantitative screening (qHTS) platform to find activators for EPAC1. In addition, this assay will also be used as a counterscreen for the EPAC2 qHTS. This fluorescent based assay is developed and validated for EPAC1 that measures exchange using EPAC effector Rap1 complex with BODIPY-GDP, a GDP analog with a tethered fluorophores. Activators are identified by monitoring the change in fluorescence signal as the exchanged free BODIPY-GDP has a reduced fluorescence compared to Rap1-bound BODIPY-GDP. Increase in signal (activation) is the desired outcome for the EPAC1 agonist while no activity in this assay is desired for the EPAC2 agonist counterscreen.
[1] de Rooij, J., Zwartkruis, F. J., Verheijen, M. H., Cool, R. H., Nijman, S. M., Wittinghofer, A., and Bos, J.L. (1998) Nature 396, 474-477.
Briefly, three uL of reagents (100 nM EPAC2, 250 nM RAP1B-BODIPY-GDP, 50 uM GDP) were dispensed into a 1536-well Greiner black solid-bottom medium binding assay plate. Controls and test compounds (23 nL) were transferred to the plate via a Kalypsys pin tool equipped with a 1536-pin array. The plates were centrifuged at 1,000 rpm for 15 seconds followed by 5 minute incubation at room temperature. The assay plates were read at 5 minute intervals for 30 minutes in the ViewLux plate reader using 480nm excitation and 540nm emission filters. The results were normalized to the agonist positive control of 6.5 mM cAMP.
% is set by controls: 0 for no effect and ±100 for the full control effect.

Chain of UniProt Q8WZA2 (Q8WZA2 whole entry, looked up): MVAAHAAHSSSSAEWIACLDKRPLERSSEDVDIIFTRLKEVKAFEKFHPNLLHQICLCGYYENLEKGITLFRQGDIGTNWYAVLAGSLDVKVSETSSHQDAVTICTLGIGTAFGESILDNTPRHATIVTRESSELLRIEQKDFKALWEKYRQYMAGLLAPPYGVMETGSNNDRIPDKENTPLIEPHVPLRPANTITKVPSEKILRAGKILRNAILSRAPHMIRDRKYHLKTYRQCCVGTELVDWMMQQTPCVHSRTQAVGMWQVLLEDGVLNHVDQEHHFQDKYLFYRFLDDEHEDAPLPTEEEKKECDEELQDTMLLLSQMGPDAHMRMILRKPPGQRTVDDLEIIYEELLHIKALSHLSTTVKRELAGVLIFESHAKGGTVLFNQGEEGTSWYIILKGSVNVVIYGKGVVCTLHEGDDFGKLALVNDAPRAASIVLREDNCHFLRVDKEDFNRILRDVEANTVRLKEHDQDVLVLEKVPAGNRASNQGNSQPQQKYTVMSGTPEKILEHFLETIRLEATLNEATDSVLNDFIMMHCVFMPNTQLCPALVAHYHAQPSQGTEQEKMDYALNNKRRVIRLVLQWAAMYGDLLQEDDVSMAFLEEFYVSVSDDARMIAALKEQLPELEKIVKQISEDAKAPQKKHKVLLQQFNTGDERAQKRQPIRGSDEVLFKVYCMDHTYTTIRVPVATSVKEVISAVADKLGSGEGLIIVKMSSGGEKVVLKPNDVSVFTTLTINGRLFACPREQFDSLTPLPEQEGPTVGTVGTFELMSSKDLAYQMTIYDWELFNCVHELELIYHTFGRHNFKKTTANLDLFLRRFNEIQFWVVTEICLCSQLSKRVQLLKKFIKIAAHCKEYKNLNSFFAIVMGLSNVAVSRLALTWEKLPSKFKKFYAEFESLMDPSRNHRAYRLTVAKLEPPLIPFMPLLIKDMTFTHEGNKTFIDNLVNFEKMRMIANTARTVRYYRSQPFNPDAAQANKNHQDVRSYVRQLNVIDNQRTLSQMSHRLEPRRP

activation, inactive:
CN1CCN(c2ncc3nc(-c4ccc(Cl)cc4)c(=O)n(C)c3n2)CC1 5.09%
CCn1nc(C)cc1C(=O)N1CCC2(CC1)c1ccccc1[C@@H](NC(=O)c1cccnc1)[C@@H]2O -19.1%
Cc1ccccc1C1(CC(=O)N2CCCC2c2nccs2)CC(=O)N(C2CCCC2)C1=O (stereo not drawn) -0.368%
COc1cc(O)c(C)c(O)c1 -15.3%
O=C(Nc1ccc(Cl)c(Cl)c1)C1CC1 -10.7%
Cn1cccc1C(=O)N1CCC2(CCCN(C(=O)Nc3cccc(F)c3)C2)CC1 -3.36%
C[C@H](C[C@H](N)C(=O)O)C(=O)O -13%
COc1cccc(CN2CCOc3ccc(CN4C[C@@H](C)O[C@@H](C)C4)cc3C2)c1OC -9.09%
OCC(O)C(O)C(O)C(O)C(O)CO (stereo not drawn) -15.1%
CCC1(C2CCN(C(=O)c3ccc(C)cc3C)CC2)NC(=O)N(CCc2scnc2C)C1=O (stereo not drawn) -4.11%
N#CCCn1c(=O)c(-c2cccs2)nc2cnc(OCc3ccccc3)nc21 1.71%
CCn1c(-c2cccnc2)nc2cc(NC(=O)COC)cc(C(=O)N3CCOc4ccccc4C3)c21 -16.1%
O=C(NCC1(N2CCCCC2)CCCCC1)c1ccc(-n2cc(NC(=O)c3cccnc3)cn2)cc1 -9.52%
CC1(C)C[C@@H]2C(=O)CCC3O[C@@]3(C)CCC21 (stereo partly drawn) -10.8%
COC(=O)c1cn([C@@H]2C[C@@H](C(=O)Nc3cccc(SC)c3)N(C3CCCCCC3)C2)nn1 -23.2%
COc1cc(-c2noc(C)c2/C=C/c2cccc([N+](=O)[O-])c2)cc(OC)c1OC -17.8%
COC(=O)C[C@H]1c2cc(C(F)(F)F)ccc2S(=O)(=O)N1Cc1ccccc1OC -20.8%
O=c1c(-c2ccccc2)nc2cnc(N3CCNCC3)nc2n1Cc1cccs1 1.37%
NOCC(=O)O -16%
O=C(c1ccoc1)N1CCOc2ccc(CN3CCC(Oc4cccnc4)CC3)cc2C1 0.0897%
COC(=O)N1CCC2(CCN(Cc3ccccc3)CC2)CC1 -26.1%
COCCn1c(=O)c(CCc2ccccc2)nc2cnc(N3CCOCC3)nc21 -1.12%
CCCCNC(=O)[C@@H]1CC=C[C@@H]2CCN(C3CCCCC3)C(=O)[C@@H]21 -17.5%
CC(=O)C[C@H]1c2cc(C(F)(F)F)ccc2S(=O)(=O)N1c1ccc(N(C)C)cc1 -25.3%
O=C(NCCc1ccccn1)C1CC12CCN(C(=O)c1c(F)cccc1Cl)CC2 (stereo not drawn) 6.67%
COCCn1c(=O)c(-c2cccc(C#N)c2)nc2cnc(Nc3ccccc3)nc21 -1.21%
N#Cc1cccc(-c2cncnc2NCc2cccs2)c1 -3.99%
Cc1nc2ccc(CN(C)c3ccc(C(=O)N[C@@H](CCC(=O)O)C(=O)O)s3)cc2c(=O)[nH]1 -13.4% and -29.1%
Cc1ccc(CN2CCC(C3(c4ccccn4)NC(=O)N(CC4CCCO4)C3=O)CC2)cc1C (stereo not drawn) -5.22%
Cc1cnc(CNc2ncnc3ccc(-c4cccc(NS(C)(=O)=O)c4)cc23)cn1 -1.14%
CC(=O)C[C@H]1c2cc(F)ccc2S(=O)(=O)N1c1ccc(N(C)C)cc1 -22.8%
CCCCCOc1ccc(C2SC(=O)NC2=O)cc1OCC (stereo not drawn) -31.1%
COC(=O)/C(C)=C/CC12OC(C)(C)C3CC(C=C4C(=O)c5cc6c(c(CCC(C)(C)Cl)c5OC431)OC1(C)CCC(=C(C)C)C6C1)C2=O (stereo not drawn) -12%
Cn1cccc1C(=O)N1CCC2(CC1)CCN(c1ncccn1)CC2 -15%
O=C(NC1CCCC1)c1cn(C2CCN(Cc3cccc4cccnc34)CC2)nn1 -0.657%
CO/N=C(\C(=O)N[C@@H]1C(=O)N2C(C(=O)O)=C(C[N+]3(C)CCCC3)CS[C@H]12)c1csc(N)n1 8.13%
CCOC(=O)[C@H](CCc1ccccc1)N[C@@H](C)C(=O)N1CCC[C@H]1C(=O)O -12.2%
COC(=O)c1ccccc1-c1cc(C)cc2c1OC(CNC(=O)c1cnc(C)cn1)C2 (stereo not drawn) -3.74%
O=C1CC2(CCCC2)CC(=O)N1CCNCC1COc2ccccc2O1 (stereo not drawn) -5.63%
CCCCOc1cc(C[C@@H]2CNC(=O)N2)ccc1OC -40.7%
Cc1cc(Cn2cnc3c2C[C@@H](C(=O)O)N(C(=O)C(c2ccccc2)c2ccccc2)C3)ccc1N(C)C -15.9%
NC[C@@H]1O[C@H](c2ccccc2)Cc2c1ccc(O)c2O 2.89% and -16.8%
COCCN(C)C(=O)c1cnn(-c2nccc(-c3cc(OC)ccc3OC)n2)c1C -5.86%
CN(C)C(=O)[C@@H]1C[C@@H](Sc2nc3ccccc3[nH]2)CN1Cc1ccc(Cl)cc1 -9.47%
Cn1nnnc1SCC1=C(C(=O)O)N2C(=O)[C@@H](NC(=O)[C@H](OC=O)c3ccccc3)[C@H]2SC1 -8.42%
COc1ccccc1CNc1ncncc1-c1ccc(C(=O)N(C)C)cc1 -0.138%
Cc1ccc2c(c1)CN(CCNC(=O)C(C)Oc1ccccc1)CC(C)O2 (stereo not drawn) 1.72%
COC(=O)c1c(OCc2ccccn2)cc(=O)n2c1CCN(Cc1ccc3nsnc3c1)CC2 -7.89%
COc1cc(-c2cc(C)c3cccc(OC)c3n2)cc2c1OCCN(C(=O)CCn1nc(C)cc1C)C2 -16.6%
CCC1CN(Cc2cn[nH]c2-c2ccc(F)cc2)Cc2cc(OC)ccc2O1 (stereo not drawn) -29.4%
CC(C)(C)NC[C@H](O)COc1cccc2[nH]c(=O)[nH]c12 -20.4%
CCOc1ccc(C(=O)c2ccc(O)c(O)c2O)cc1 -0.0109%
COc1ccc(CN2CCCC(n3cc(C(=O)N4CCCCC4)nn3)C2)c(OC)c1OC (stereo not drawn) -20.2%
